In all, about 33,000 sequences were measured (“E-score (-0.5 to 0.5)”: median about -0.013, highest 2% from about 0.3 on). The list shows a part of the results.
The sequences below were run against T1, Msn1 (UniProt P22148) (assay: PBM E-score (8-mer binding enrichment) (E-score (-0.5 to 0.5)); higher = stronger / more preferred TF binding; most listed sequences are background and not binding sites). Conditions: protein concentration: 200 nM; construct: GST-full length.
T1 sequence: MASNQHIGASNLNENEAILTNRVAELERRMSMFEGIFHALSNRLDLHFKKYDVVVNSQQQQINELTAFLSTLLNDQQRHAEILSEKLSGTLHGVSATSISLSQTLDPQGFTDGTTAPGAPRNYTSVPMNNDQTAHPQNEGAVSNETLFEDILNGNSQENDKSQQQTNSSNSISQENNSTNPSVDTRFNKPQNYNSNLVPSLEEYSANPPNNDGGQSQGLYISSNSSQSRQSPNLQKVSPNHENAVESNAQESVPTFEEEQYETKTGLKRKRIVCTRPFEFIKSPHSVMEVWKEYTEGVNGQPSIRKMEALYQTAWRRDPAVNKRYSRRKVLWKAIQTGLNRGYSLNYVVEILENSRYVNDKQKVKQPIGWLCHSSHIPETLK
In short: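 Full-length yeast transcription factors or their DNA-binding domains, GST-tagged and expressed with PURExpress, were applied at about 100-200 nM to universal all-10-mer Agilent arrays. These arrays had been made double-stranded by primer extension on fresh or once-stripped slides. Detection used fluorescent anti-GST, normalisation used masliner, and E-scores for ungapped eight-base words pooled with reverse complements came from the Universal PBM Analysis Suite.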

Point of comparison: CGATGGCG, “PBM E-score” value -0.102. Against it:
- CTGCTGGC — lower, -0.19
- AAATATTT — higher, 0.292
- CACACGCA — lower, -0.14
- CACACCGG — higher, -0.082
- GGTAACAC — higher, 0.0375
- CAGTGGTC — lower, -0.138
- CCGGTGCG — higher, -0.00399
- GGTCCTGA — higher, 0.0385
- CAGTCACG — lower, -0.198
- CCTTATAC — higher, 0.0669
- CCTGGTAG — lower, -0.248
- CAAACCAG — higher, -0.056
- CCCGAACC — lower, -0.227
- CCTAAGCC — lower, -0.242
- AGTCTCTC — lower, -0.121
- GTCTCGAA — higher, 0.156
- AAACAATA — higher, 0.237
- ATTGGCAG — lower, -0.152
- TATCTTGA — lower, -0.103
- CAGCAAAG — higher, 0.118
- ACGCTGCC — lower, -0.175
- CAAACACG — higher, 0.0735
- GACTAGAC — higher, -0.0357
- GCCGTTCC — lower, -0.109
- TGCGCTAA — higher, 0.111
- ACGTGCAA — higher, 0.0425
- GTTACGAA — higher, 0.0416
- GAAACCAC — lower, -0.155
- CAGCCCGC — lower, -0.259
- AAATTCTT — higher, 0.0507
- TACAAGGA — higher, 0.197
- GGCTCCTA — lower, -0.319
- CTTCACCC — higher, 0.103
- AATCCGGT — higher, 0.169
- CAGGGGAC — lower, -0.125
- TATCTGCA — higher, -0.052
- ACCTCCCG — lower, -0.299
- CTTGAACA — higher, -0.0163
- CAAGAGCC — higher, 0.0197
- AAGCCGGA — higher, 0.131
- AACGTCGC — higher, 0.096
- CTGTAAGC — higher, 0.0563
- CAAGATCG — higher, 0.0775
- CTGTGGAA — lower, -0.151
- GGTGCATA — lower, -0.167
- CACTGGGC — lower, -0.155
- GCTAATCC — higher, -0.0986
- ATGTAATA — higher, 0.0505
- GCGGACCA — higher, 0.0483
- TTGAGAAA — higher, 0.083
- GAGTCACA — higher, -0.0411
- ACACCGGT — higher, 0.0772
- ACATGGAA — higher, 0.216
- CCACAACA — higher, 0.0856
- CGACCAGC — higher, -0.082
- ACATTATC — higher, 0.167
- CTAGGCAG — higher, -0.0991
- AATTCCTA — higher, 0.0587
- ATCCTCTC — lower, -0.18
- GGGAGGCA — lower, -0.268
- GTCGCAAA — higher, 0.0731
- CGTACCCC — higher, -0.0691
- ACAAAGAT — higher, 0.259
- AGGCTGTA — higher, 0.0234
- AGTCATAC — higher, 0.14
- ACCCTACG — lower, -0.173
- ACCGGGAT — lower, -0.122
- CGTTCCGA — higher, 0.13
- GCACATCC — higher, -0.0478
- CGCTCCTC — lower, -0.346
- TAACCAGA — higher, 0.083
- ACTGCCAT — higher, 0.0642
- ACAATATA — higher, 0.165
- CTATGCAA — higher, 0.0505
- CTCCAGTA — higher, 0.057
- ATGTACAA — higher, 0.36
- ACGGTACC — higher, -0.004
- ACCTAGGC — lower, -0.235
- CATCAGTC — higher, 0.0092
- ACGTGGAT — the same, -0.102
- ACGCAGTG — lower, -0.199
- ACCCCAAC — higher, -0.101
- CCGAATAG — higher, 0.0613
- CTCTAAGC — higher, 0.0961
- GCTGTGTA — higher, 0.0153
